Experimental data from the supplement of paper PMC8728848.
The list shows a part of the results.

Experiments:
Test in all cases: glycan array binding signal (z-score within array); higher = stronger binding
Details in all cases: glycan notation: IUPAC condensed, linker removed
[1] = molecular target: Neu5Ac(a2-3)Gal(b1-4)GlcNAc(b1-3)Gal
Procedure, shortened: (§1)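 Glycan array binding is given as a within-array Z-score, which can be read as non-binding when negative. The arrays, 3228 of them, came from the Consortium for Functional Glycomics database and were retained only where the protein sequence was available. Z-scores were averaged across arrays of the same protein sequence at different concentrations or buffers and across linkers.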

[2] = molecular target: Neu5Ac(a2-3)Gal(b1-4)GlcNAc(b1-3)Gal(b1-3)GlcNAc
Procedure, shortened: as §1

[3] = molecular target: Neu5Ac(a2-3)Gal(b1-4)GlcNAc(b1-3)Gal(b1-4)GlcNAc
Procedure, shortened: as §1

[4] = molecular target: Neu5Ac(a2-3)Gal(b1-4)GlcNAc(b1-3)Gal(b1-4)GlcNAc(b1-3)Gal(b1-4)GlcNAc
Procedure, shortened: as §1

[5] = molecular target: Neu5Ac(a2-3)Gal(b1-4)GlcNAc(b1-3)Gal(b1-4)[Fuc(a1-3)]GlcNAc
Procedure, shortened: as §1

[6] = molecular target: Neu5Ac(a2-3)Gal(b1-4)GlcNAc(b1-3)GalNAc
Procedure, shortened: as §1

[7] = molecular target: Neu5Ac(a2-3)Gal(b1-4)GlcNAc(b1-6)[Gal(b1-3)]GalNAc
Procedure, shortened: as §1

[8] = molecular target: Neu5Ac(a2-3)Gal(b1-4)GlcNAc(b1-6)[Neu5Ac(a2-3)Gal(b1-3)]GalNAc
Procedure, shortened: as §1

[9] = molecular target: Neu5Ac(a2-3)Gal(b1-4)GlcNAc6S
Procedure, shortened: as §1

[10] = molecular target: Neu5Ac(a2-3)Gal(b1-4)[Fuc(a1-3)]GlcNAc
Procedure, shortened: as §1

[11] = molecular target: Neu5Ac(a2-3)Gal(b1-4)[Fuc(a1-3)]GlcNAc(b1-3)Gal
Procedure, shortened: as §1

[12] = molecular target: Neu5Ac(a2-3)Gal(b1-4)[Fuc(a1-3)]GlcNAc(b1-3)Gal(b1-4)GlcNAc
Procedure, shortened: as §1

[13] = molecular target: Neu5Ac(a2-3)Gal(b1-4)[Fuc(a1-3)]GlcNAc(b1-3)Gal(b1-4)[Fuc(a1-3)]GlcNAc(b1-3)Gal(b1-4)[Fuc(a1-3)]GlcNAc
Procedure, shortened: as §1

[14] = molecular target: Neu5Ac(a2-3)Gal(b1-4)[Fuc(a1-3)]GlcNAc(b1-3)GalNAc
Procedure, shortened: as §1

[15] = molecular target: Neu5Ac(a2-3)Gal(b1-4)[Fuc(a1-3)]GlcNAc(b1-6)[Gal(b1-3)]GalNAc
Procedure, shortened: as §1

[16] = molecular target: Neu5Ac(a2-3)Gal(b1-4)[Fuc(a1-3)]GlcNAc6S
Procedure, shortened: as §1

[17] = molecular target: Neu5Ac(a2-3)Gal6S(b1-4)GlcNAc
Procedure, shortened: as §1

[18] = molecular target: Neu5Ac(a2-3)Gal6S(b1-4)[Fuc(a1-3)]GlcNAc
Procedure, shortened: as §1

Neu5Ac(a2-3)GalNAc = molecular target: Neu5Ac(a2-3)GalNAc
Procedure, shortened: as §1

[19] = molecular target: Neu5Ac(a2-3)GalNAc(b1-4)GlcNAc
Procedure, shortened: as §1

[20] = molecular target: Neu5Ac(a2-3)[GalNAc(b1-4)]Gal(b1-4)Glc
Procedure, shortened: as §1

[21] = molecular target: Neu5Ac(a2-3)[GalNAc(b1-4)]Gal(b1-4)GlcNAc
Procedure, shortened: as §1

[22] = molecular target: Neu5Ac(a2-3)[GalNAc(b1-4)]Gal(b1-4)GlcNAc(b1-3)GalNAc
Procedure, shortened: as §1

[23] = molecular target: Neu5Ac(a2-3)[Neu5Ac(a2-6)]GalNAc
Procedure, shortened: as §1

Neu5Ac(a2-6)Gal = molecular target: Neu5Ac(a2-6)Gal
Procedure, shortened: as §1

[24] = molecular target: Neu5Ac(a2-6)Gal(b1-3)GlcNAc(b1-3)[Gal(b1-4)GlcNAc(b1-6)]Gal(b1-4)Glc
Procedure, shortened: as §1

Neu5Ac(a2-6)Gal(b1-4)Glc = molecular target: Neu5Ac(a2-6)Gal(b1-4)Glc
Procedure, shortened: as §1

[25] = molecular target: Neu5Ac(a2-6)Gal(b1-4)GlcNAc
Procedure, shortened: as §1

[26] = molecular target: Neu5Ac(a2-6)Gal(b1-4)GlcNAc(b1-2)Man(a1-3)Man(b1-4)GlcNAc(b1-4)GlcNAc
Procedure, shortened: as §1

[27] = molecular target: Neu5Ac(a2-6)Gal(b1-4)GlcNAc(b1-2)Man(a1-3)[Gal(b1-4)GlcNAc(b1-2)Man(a1-6)]Man(b1-4)GlcNAc(b1-4)GlcNAc
Procedure, shortened: as §1

B1: NanI (Corynebacterium diphtheriae), C6JSW7 (protein)
chain: MTNTLESNPMTTTTGALTITFATTCDGPLAHIPHHLDLNIIHGRIQGTTAHRRIDAEDPDGLDDGLPHHLCLSVDTTGTHLFIDGYEAFSTTQTEWFDTSELTLNPHGDLTIIDHQILNHAPTPRQARNLAPAAEPLVWFAGSHLSTRDTQRISHLTHGSLRLLMKTRGTGQGGVAFQAHTINGDLTLEIIDGTLIFSVRCHDEDYVRITAPGRWDDGQIYDVVIVCGRGATDIYVDGQQLIHSPGAAFFNDLSGELSVHIGTAASGVRLFGEVQSGMIYPHVFNHHQVQRLATVEPIATQALFDCLLDGAQSYRIPSLITTDSGVIIAGADKRVSIANDAPNDIDFVLRRSVDGGRTWQPPRTILQLPDTACVTDSVLLQDHTTGRIFAFLDQFPAGIGQPNAAFGTGFDADGNRIGHFADGSTCTMPREVDQLEASFFSDPHTAPPGIVFQHPSCHLWMLTSDDDGLTWSTPRDLTPDVKEEWMRFCGTSPGNGIQLQRDTHAGRLLIPMYYTKGDQFFAAALYSDDHGDTWHRGESPDLEMYESTLVEASDGSVLLWARNQHPSGAVAHARSTDGGHSWSQVTFNPNVPEIFSQPNALRVTNPDGIIFANASQLLPFRGRGVLRMSTNDGASWQHNRVFNPRHYVYQCMTQLPDGSIGLLWEREMQGLFFSIIPMTWIMQGYAL
B1 was tested, and the “glycan array binding signal (z-score)” value [1] was -0.457, the “glycan array binding signal (z-score)” value [2] was -0.458 and the “glycan array binding signal (z-score)” value [3] was -0.037. The “glycan array binding signal (z-score)” value [4] was -0.3, the “glycan array binding signal (z-score)” value [5] was 0.261 and the “glycan array binding signal (z-score)” value [6] was -1.01. For the same binder, the “glycan array binding signal (z-score)” value [7] was 0.124, the “glycan array binding signal (z-score)” value [8] was -0.187 and the “glycan array binding signal (z-score)” value [9] was 0.664. For the same binder, the “glycan array binding signal (z-score)” value [10] was 0.474, the “glycan array binding signal (z-score)” value [11] was -0.247 and the “glycan array binding signal (z-score)” value [12] was 0.961. For the same binder, the “glycan array binding signal (z-score)” value [13] was -0.078, the “glycan array binding signal (z-score)” value [14] was 3.03 and the “glycan array binding signal (z-score)” value [15] was 0.923. For the same binder, the “glycan array binding signal (z-score)” value [16] was 1.63, the “glycan array binding signal (z-score)” value [17] was -0.864 and the “glycan array binding signal (z-score)” value [18] was -0.34. The “glycan array binding signal (z-score)” value (Neu5Ac(a2-3)GalNAc) was -0.251, the “glycan array binding signal (z-score)” value [19] was -0.508 and the “glycan array binding signal (z-score)” value [20] was -0.037. For the same binder, the “glycan array binding signal (z-score)” value [21] was -0.536, the “glycan array binding signal (z-score)” value [22] was 0.669 and the “glycan array binding signal (z-score)” value [23] was 0.555. For the same binder, the “glycan array binding signal (z-score)” value (Neu5Ac(a2-6)Gal) was 0.143, the “glycan array binding signal (z-score)” value [24] was -0.363 and the “glycan array binding signal (z-score)” value (Neu5Ac(a2-6)Gal(b1-4)Glc) was 0.097. The “glycan array binding signal (z-score)” value [25] was -0.005, the “glycan array binding signal (z-score)” value [26] was -0.292 and the “glycan array binding signal (z-score)” value [27] was -0.774.
